Results from PMC4950114.
No constants are given. Whether binding was seen depends on the method and setting. In cells and extracts the contact can be indirect. Some entries that bind do so weakly or less than the wild type. For some assays here: Sequences can lack the tags named with a protein.

Chains of the proteins cited; added tags and fusions are not shown. Lines headed by an entry give the natural chain unless they say otherwise; changes in a name come on top.
UniProt Q15286: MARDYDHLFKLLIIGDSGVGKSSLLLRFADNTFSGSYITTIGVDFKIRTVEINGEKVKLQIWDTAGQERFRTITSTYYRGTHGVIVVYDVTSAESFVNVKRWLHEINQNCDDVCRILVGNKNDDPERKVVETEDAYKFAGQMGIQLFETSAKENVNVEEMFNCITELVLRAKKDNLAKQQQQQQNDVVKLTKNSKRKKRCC

How the values were obtained:
GFP-RAB35, Q15286 = assay: co-IP; HEK293T cells cotransfected with GFP-RAB35 and/or HA-MICAL1; lysates immunoprecipitated with anti-GFP antibody at 4 °C overnight, protein A + G agarose, immunoblot; conditions: remark: other sources report otherwise
[1] = biological target: GFP-tagged RAB35 (WT), Q15286; assay: co-IP; MCF-7 cells transfected with GFP-tagged RAB35 (WT), (DN) or (CA); immunoprecipitated with anti-GFP antibody, immunoblot for RAB35 and endogenous MICAL1; conditions: remark: other sources report otherwise
[2] = biological target: endogenous RAB35 (human (endogenous in MCF-7 and MDA-MB-231)), Q15286; assay: co-IP; endogenous RAB35 and endogenous MICAL1 in lysates of MDA-MB-231 and MCF-7 cells; which protein was precipitated is not told; conditions: remark: other sources report otherwise
[3] = biological target: GFP-tagged RAB35 (CA), RAB35-Q67L (UniProt Q15286); assay: co-IP; MCF-7 cells transfected with GFP-tagged RAB35 (WT), (DN) or (CA); immunoprecipitated with anti-GFP antibody, immunoblot for RAB35 and endogenous MICAL1
[4] = biological target: GFP-tagged RAB35 (DN), RAB35-S22N (UniProt Q15286); assay: as above

B1: HA-MICAL1, Q8TDZ2 1-1067 (protein)
chain: MASPTSTNPAHAHFESFLQAQLCQDVLSSFQELCGALGLEPGGGLPQYHKIKDQLNYWSAKSLWTKLDKRAGQPVYQQGRACTSTKCLVVGAGPCGLRVAVELALLGARVVLVEKRTKFSRHNVLHLWPFTIHDLRALGAKKFYGRFCTGTLDHISIRQLQLLLLKVALLLGVEIHWGVTFTGLQPPPRKGSGWRAQLQPNPPAQLANYEFDVLISAAGGKFVPEGFKVREMRGKLAIGITANFVNGRTVEETQVPEISGVARIYNQSFFQSLLKATGIDLENIVYYKDDTHYFVMTAKKQCLLRLGVLRQDWPDTNRLLGSANVVPEALQRFTRAAADFATHGKLGKLEFAQDAHGQPDVSAFDFTSMMRAESSARVQEKHGARLLLGLVGDCLVEPFWPLGTGVARGFLAAFDAAWMVKRWAEGAESLEVLAERESLYQLLSQTSPENMHRNVAQYGLDPATRYPNLNLRAVTPNQVRDLYDVLAKEPVQRNNDKTDTGMPATGSAGTQEELLRWCQEQTAGYPGVHVSDLSSSWADGLALCALVYRLQPGLLEPSELQGLGALEATAWALKVAENELGITPVVSAQAVVAGSDPLGLIAYLSHFHSAFKSMAHSPGPVSQASPGTSSAVLFLSKLQRTLQRSRAKENAEDAGGKKLRLEMEAETPSTEVPPDPEPGVPLTPPSQHQEAGAGDLCALCGEHLYVLERLCVNGHFFHRSCFRCHTCEATLWPGGYEQHPGDGHFYCLQHLPQTDHKAEGSDRGPESPELPTPSENSMPPGLSTPTASQEGAGPVPDPSQPTRRQIRLSSPERQRLSSLNLTPDPEMEPPPKPPRSCSALARHALESSFVGWGLPVQSPQALVAMEKEEKESPFSSEEEEEDVPLDSDVEQALQTFAKTSGTMNNYPTWRRTLLRRAKEEEMKRFCKAQTIQRRLNEIEAALRELEAEGVKLELALRRQSSSPEQQKKLWVGQLLQLVDKKNSLVAEEAELMITVQELNLEEKQWQLDQELRGYMNREENLKTAADRQAEDQVLRKLVDLVNQRDALIRFQEERRLSELALGTGAQG
With B1 the binding (GFP-RAB35, Q15286) was “binds”.

B2: endogenous MICAL1, Q8TDZ2 1-1067 (protein)
chain: MASPTSTNPAHAHFESFLQAQLCQDVLSSFQELCGALGLEPGGGLPQYHKIKDQLNYWSAKSLWTKLDKRAGQPVYQQGRACTSTKCLVVGAGPCGLRVAVELALLGARVVLVEKRTKFSRHNVLHLWPFTIHDLRALGAKKFYGRFCTGTLDHISIRQLQLLLLKVALLLGVEIHWGVTFTGLQPPPRKGSGWRAQLQPNPPAQLANYEFDVLISAAGGKFVPEGFKVREMRGKLAIGITANFVNGRTVEETQVPEISGVARIYNQSFFQSLLKATGIDLENIVYYKDDTHYFVMTAKKQCLLRLGVLRQDWPDTNRLLGSANVVPEALQRFTRAAADFATHGKLGKLEFAQDAHGQPDVSAFDFTSMMRAESSARVQEKHGARLLLGLVGDCLVEPFWPLGTGVARGFLAAFDAAWMVKRWAEGAESLEVLAERESLYQLLSQTSPENMHRNVAQYGLDPATRYPNLNLRAVTPNQVRDLYDVLAKEPVQRNNDKTDTGMPATGSAGTQEELLRWCQEQTAGYPGVHVSDLSSSWADGLALCALVYRLQPGLLEPSELQGLGALEATAWALKVAENELGITPVVSAQAVVAGSDPLGLIAYLSHFHSAFKSMAHSPGPVSQASPGTSSAVLFLSKLQRTLQRSRAKENAEDAGGKKLRLEMEAETPSTEVPPDPEPGVPLTPPSQHQEAGAGDLCALCGEHLYVLERLCVNGHFFHRSCFRCHTCEATLWPGGYEQHPGDGHFYCLQHLPQTDHKAEGSDRGPESPELPTPSENSMPPGLSTPTASQEGAGPVPDPSQPTRRQIRLSSPERQRLSSLNLTPDPEMEPPPKPPRSCSALARHALESSFVGWGLPVQSPQALVAMEKEEKESPFSSEEEEEDVPLDSDVEQALQTFAKTSGTMNNYPTWRRTLLRRAKEEEMKRFCKAQTIQRRLNEIEAALRELEAEGVKLELALRRQSSSPEQQKKLWVGQLLQLVDKKNSLVAEEAELMITVQELNLEEKQWQLDQELRGYMNREENLKTAADRQAEDQVLRKLVDLVNQRDALIRFQEERRLSELALGTGAQG
B2 was tested, and the binding [1] was “binds” and the binding [2] was “binds”.

B3: endogenous MICAL1 (protein, UniProt Q8TDZ2 1-1067)
chain: MASPTSTNPAHAHFESFLQAQLCQDVLSSFQELCGALGLEPGGGLPQYHKIKDQLNYWSAKSLWTKLDKRAGQPVYQQGRACTSTKCLVVGAGPCGLRVAVELALLGARVVLVEKRTKFSRHNVLHLWPFTIHDLRALGAKKFYGRFCTGTLDHISIRQLQLLLLKVALLLGVEIHWGVTFTGLQPPPRKGSGWRAQLQPNPPAQLANYEFDVLISAAGGKFVPEGFKVREMRGKLAIGITANFVNGRTVEETQVPEISGVARIYNQSFFQSLLKATGIDLENIVYYKDDTHYFVMTAKKQCLLRLGVLRQDWPDTNRLLGSANVVPEALQRFTRAAADFATHGKLGKLEFAQDAHGQPDVSAFDFTSMMRAESSARVQEKHGARLLLGLVGDCLVEPFWPLGTGVARGFLAAFDAAWMVKRWAEGAESLEVLAERESLYQLLSQTSPENMHRNVAQYGLDPATRYPNLNLRAVTPNQVRDLYDVLAKEPVQRNNDKTDTGMPATGSAGTQEELLRWCQEQTAGYPGVHVSDLSSSWADGLALCALVYRLQPGLLEPSELQGLGALEATAWALKVAENELGITPVVSAQAVVAGSDPLGLIAYLSHFHSAFKSMAHSPGPVSQASPGTSSAVLFLSKLQRTLQRSRAKENAEDAGGKKLRLEMEAETPSTEVPPDPEPGVPLTPPSQHQEAGAGDLCALCGEHLYVLERLCVNGHFFHRSCFRCHTCEATLWPGGYEQHPGDGHFYCLQHLPQTDHKAEGSDRGPESPELPTPSENSMPPGLSTPTASQEGAGPVPDPSQPTRRQIRLSSPERQRLSSLNLTPDPEMEPPPKPPRSCSALARHALESSFVGWGLPVQSPQALVAMEKEEKESPFSSEEEEEDVPLDSDVEQALQTFAKTSGTMNNYPTWRRTLLRRAKEEEMKRFCKAQTIQRRLNEIEAALRELEAEGVKLELALRRQSSSPEQQKKLWVGQLLQLVDKKNSLVAEEAELMITVQELNLEEKQWQLDQELRGYMNREENLKTAADRQAEDQVLRKLVDLVNQRDALIRFQEERRLSELALGTGAQG
In the case of B3, the binding [3] is reported as “binds” and the binding [4] is reported as “no binding”.
